{
  "source": "PubChem BioAssay AID1030",
  "about": "(National Center for Advancing Translational Sciences (NCATS), 2008)",
  "note": "Hit rate of the full screen: of about 220,000 compounds, about 16,000 (7.3%) were called active. The inconclusive results got no clear call from the source; some entries with a clear call stand among them for comparison. The call rests on the fitted dose curve; in most records, active means well fitted inhibition curve with a large enough effect (not every such curve was filed as active); inconclusive means small, poorly fitted or top-dose-only effect, or another doubt; inactive means no such curve, though single readings can be large or run the other way. Potencies of inconclusive entries are left out as doubtful fits. Potency means the concentration at half of the fitted maximal effect; tags describe the fitted curve by direction and shape.",
  "data": [
    {"target": "Aldehyde dehydrogenase 1A1 (Homo sapiens) (UniProt P00352)", "sequence (P00352 whole entry, looked up)": "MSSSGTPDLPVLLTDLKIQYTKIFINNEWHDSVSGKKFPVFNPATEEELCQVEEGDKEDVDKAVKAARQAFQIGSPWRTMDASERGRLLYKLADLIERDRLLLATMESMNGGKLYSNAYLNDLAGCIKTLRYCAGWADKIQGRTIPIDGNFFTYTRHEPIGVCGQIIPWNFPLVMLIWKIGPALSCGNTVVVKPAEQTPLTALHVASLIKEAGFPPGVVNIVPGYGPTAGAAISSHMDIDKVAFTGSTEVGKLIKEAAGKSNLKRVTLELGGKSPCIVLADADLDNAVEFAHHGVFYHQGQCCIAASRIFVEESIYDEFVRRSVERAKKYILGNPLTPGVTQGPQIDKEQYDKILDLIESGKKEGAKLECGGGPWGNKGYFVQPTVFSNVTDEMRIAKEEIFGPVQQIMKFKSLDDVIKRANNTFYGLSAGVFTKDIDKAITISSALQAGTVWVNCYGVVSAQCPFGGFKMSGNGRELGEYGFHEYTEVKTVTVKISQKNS", "assay": "qHTS Assay for Inhibitors of Aldehyde Dehydrogenase 1 (ALDH1A1)", "conditions": "Purified ALDH1A1, NADH fluorescence, propionaldehyde substrate; series mostly up to 75.3 µM", "values": [
      {"smiles": "CCCn1c(=S)[nH]c2cc(C(=O)N3CCc4ccccc43)ccc2c1=O", "Potency": "inconclusive [inhibitor, partial curve]"},
      {"smiles": "CC(C)Cc1nnc(NC(=O)CCc2c[nH]c3ccccc23)s1", "Potency": "inconclusive [inhibitor, single point]"},
      {"smiles": "CC1CCN(c2nc3ccc(C(=O)N4CCN(Cc5ccc6c(c5)OCO6)CC4)cc3s2)CC1", "Potency": "inconclusive [inhibitor, partial curve]"},
      {"smiles": "Cc1ccc2[nH]cc(C(=O)CN3CCN(c4ccccc4F)CC3)c2c1", "Potency": "inconclusive [inhibitor, single point]"},
      {"smiles": "Cc1ccccc1Nc1oc(-c2ccccc2)nc1CCc1ccccc1", "Potency": "inconclusive [inhibitor, partial curve]"},
      {"smiles": "Nc1nc(N)c(C=Nc2ccc(Br)cc2)c(Nc2ccc(Br)cc2)n1", "Potency": "inactive"},
      {"smiles": "O=C(Nc1nccs1)c1ccc(Cl)c(S(=O)(=O)N2CCCCC2)c1", "Potency": "inconclusive [inhibitor, single point]"},
      {"smiles": "COc1cccc(N2CCN(CC(=O)c3c[nH]c4ccc(OC)cc34)CC2C)c1", "note": "(centres undefined)", "Potency": "inconclusive [inhibitor, partial curve]"},
      {"smiles": "NC(=O)C1=C[C@H](c2csc3ccccc23)C[C@H](OCc2ccc(CO)cc2)O1", "Potency": "active: 8.91 µM"},
      {"smiles": "CC(=O)N1CCc2cc(S(=O)(=O)NCCCOC(C)C)ccc21", "Potency": "inconclusive [inhibitor, partial curve]"},
      {"smiles": "COc1ccc(NCc2n[nH]nc2-c2ccccc2)cc1Cl", "Potency": "inconclusive [inhibitor, single point]"},
      {"smiles": "CSc1nccc(Oc2ccc(C#N)cc2)n1", "Potency": "inactive"},
      {"smiles": "CCOc1cccc(=O)c2c(C)n(Cc3ccco3)c(C)c12", "Potency": "active: 2.24 µM"},
      {"smiles": "CC(C(=O)O/N=C(\\N)c1cccnc1)c1ccc([N+](=O)[O-])cc1", "note": "(centres undefined)", "Potency": "inactive"},
      {"smiles": "COCCSc1ccccc1C(=O)Nc1cccnc1", "Potency": "inconclusive [inhibitor, single point]"},
      {"smiles": "O=C(NC(=S)NCc1ccccc1)C1CCCCC1", "Potency": "inconclusive [inhibitor, single point]"},
      {"smiles": "CC1(C)CC(=O)C2=C(C1)OC(N)=C(C#N)[C@@]21C(=O)N(CC(N)=O)c2ccccc21", "Potency": "inactive"},
      {"smiles": "CCCCC1=CC2=C(c3ccco3)C(=O)C(C)(OC(=O)c3ccc(OC)cc3)C(=O)C2=CN1CCCCO", "note": "(centres undefined)", "Potency": "inconclusive [inhibitor, single point]"},
      {"smiles": "Cc1ccc(-c2nnc(N3CCC(C)CC3)c3ccccc23)cc1C", "Potency": "inconclusive [inhibitor, partial curve]"}
    ]}
  ]
}
